Results taken from ChEMBL document CHEMBL4888484, “Replenishing the malaria drug discovery pipeline: Screening and hit evaluation of the MMV Hit Generation Library 1 (HGL1) against asexual blood stage Plasmodium falciparum ,using a nano luciferase reporter read-out” (2022).
About 540 (0.36%) of roughly 150,000 compounds showed an effect of 50% or more. Some of the results follow.

Each compound was assayed on Plasmodium falciparum (assay: Primary screen in NF54 nanoGlo assay, in single point, at 2uM, 72h; a lower Z score goes with more inhibition). Conditions: timepoint 72 hour.
Type: functional, Erythrocyte
With CCCCN(CC)C(=O)c1cccc(NS(=O)(=O)CCC)c1 the “% Inhibition” value was -4% and the Z score was 0.56. CC(C)CCN(CCC(C)C)C(=O)CN(C)C1CCCC1S(C)(=O)=O (stereo unspecified) was tested, and the “% Inhibition” value was -5% and the Z score was 0.82. For O=S(=O)(c1c(Cl)ccc2nsnc12)N1CCN(Cc2cccs2)CC1, the “% Inhibition” value was -11% and the Z score was 1.16. For OCC1CCN([C@H]2CCCN(Cc3ccc(-n4cccn4)cc3)C2)CC1, the “% Inhibition” value was -1% and the Z score was 0.2. In the case of NC(=O)[C@H]1CC[C@H](CN2CC(c3ccccc3)(c3ccccc3)CCC2=O)CC1, the “% Inhibition” value is reported as -6% and the Z score is reported as 0.77. With O=C(c1ccccc1F)N1CCS(=O)(=O)CC1 the “% Inhibition” value was -4% and the Z score was 0.59. With Cc1ccc(-c2noc(-c3cccnc3NCc3ccccn3)n2)cc1 the “% Inhibition” value was -6% and the Z score was 0.87. For O=C(Cn1nnc2ccccc21)N1CC(N2C(=O)CNC2=O)C1, the “% Inhibition” value was -2% and the Z score was 0.38. CCC(Cc1ccc(F)cc1)NC(=O)N[C@H]1CCO[C@@H]1c1cn(C)nc1C (stereo partly specified) was tested, and the “% Inhibition” value was -13% and the Z score was 1.37. For COc1cccc(CN2C[C@@H]3C[C@H]2C(=O)NC[C@@H]2CCC[C@@H](CCOc4ccccc4C(=O)N3)O2)c1, the “% Inhibition” value was 0% and the Z score was 0. For CCc1[nH]c2c(CNC(=O)[C@H](Cc3c[nH]cn3)NC(C)=O)cc(F)cc2c1C, the “% Inhibition” value was -7% and the Z score was 1.31. For CC(C)Cc1noc(CN(C)C(=O)CCc2nncn2C)n1, the “% Inhibition” value was -6% and the Z score was 0.76. Cc1ccccc1-c1cc(NC(=O)Nc2c(C)n[nH]c2C)n(C)n1 was tested, and the “% Inhibition” value was -16% and the Z score was 1.6. In the case of Cc1ccc(F)c(NC(=O)N2CCC[C@H](c3cn[nH]c3)C2)c1, the “% Inhibition” value is reported as -10% and the Z score is reported as 1.88. In the case of Clc1ccc(-c2nnc(-c3cccnc3NCCC3=CCCCC3)o2)cc1, the “% Inhibition” value is reported as 1% and the Z score is reported as -0.08. With Cc1csc(C2=C(O)CN(C[C@H]3CCCO3)C2=N)n1 the “% Inhibition” value was -6% and the Z score was 0.6. For O=S(=O)(c1ccccc1)N(Cc1cccs1)C1CCOCC1, the “% Inhibition” value was -4% and the Z score was 0.69. With C[C@]1(CNC(=O)Nc2cccc(CN3CCOCC3)n2)CCCCO1 the “% Inhibition” value was -6% and the Z score was 1.13. COc1ccc(-c2n[nH]c(CC(C)C)c2NC(=O)Cc2ccc(F)cc2)cc1OC was tested, and the “% Inhibition” value was 2% and the Z score was -0.27. With CN(C)c1ccccc1-c1ccc(C(=O)O)cc1CO the “% Inhibition” value was -7% and the Z score was 1.12. For Cc1cccc(NC(=O)c2cccc(N3C[C@@H](C(=O)Nc4ccc(F)cc4)CC3=O)c2)c1, the “% Inhibition” value was -29% and the Z score was 2.77. Cc1cnc(C(=O)NCC(=O)c2ccccc2Cl)cn1 was tested, and the “% Inhibition” value was 9% and the Z score was -0.94. For CCC(CC)[C@H](CNC(=O)Nc1ccc(N2CCOCC2)cc1C)N1CCCC1, the “% Inhibition” value was -5% and the Z score was 0.82. In the case of O=C(CC1CCCCC1)N[C@H](c1ccccc1)c1nnc(N2CCCCC2)o1, the “% Inhibition” value is reported as -10% and the Z score is reported as 1.19. For CC(=O)c1cccc(N[C@@H](C)C(=O)N2CCCCCC2)c1, the “% Inhibition” value was -13% and the Z score was 2.11. O=C(CCNC(=O)c1ccncc1)NCCCN(C1CC1)S(=O)(=O)c1cccc(F)c1 was tested, and the “% Inhibition” value was -5% and the Z score was 0.74. With CCn1ccnc1CNC(=O)NCc1cc(Br)cnc1OC the “% Inhibition” value was 10% and the Z score was -1.68. Cc1nn(C)c(C)c1NC(=O)CN1C(=O)N[C@H](c2cc(Br)ccc2F)C1=O was tested, and the “% Inhibition” value was -12% and the Z score was 1.65. In the case of Cc1cccc(CC2(NC(=O)[C@H](C)N(C)C)CC2)c1, the “% Inhibition” value is reported as 1% and the Z score is reported as -0.22. With O=S1(=O)C[C@H](O)[C@@H](n2ccnc2-c2nc3c(s2)CCCC3)C1 the “% Inhibition” value was -16% and the Z score was 1.5. For COCc1csc(NC(=O)c2[nH]cnc2C(=O)c2ccccc2)n1, the “% Inhibition” value was -1% and the Z score was 0.11. With CCC(=O)Nc1ccc(-c2cccc(-c3cc[nH]n3)c2)c(C)n1 the “% Inhibition” value was -9% and the Z score was 1.07. O=C(c1ccsc1)N1CCC[C@@](F)(C(=O)N2CCOCC2)C1 was tested, and the “% Inhibition” value was -16% and the Z score was 1.39. With CN1C(=O)[C@]2(CCN(C(=O)c3cccc(Cl)c3)C2)c2ccccc21 the “% Inhibition” value was -17% and the Z score was 2.18. With Cc1nc(N)cc(NCCCCN2CCCC2)n1 the “% Inhibition” value was 8% and the Z score was -1.56. With CC(=O)Nc1c2n(c3ccc(F)cc13)C[C@@](C)(C(=O)NC1CCCCCC1)N(CCN(C)C)C2=O the “% Inhibition” value was -21% and the Z score was 2.01. CN(CC(=O)N1CCCCC1)C1CCCCC1 was tested, and the “% Inhibition” value was -12% and the Z score was 1.32. In the case of CCn1cc(C#N)c(=O)c2cc(F)c(N3CCN(Cc4ccccc4)CC3)cc21, the “% Inhibition” value is reported as 68% and the Z score is reported as -7.22. Cc1[nH]c(C(=O)O)c(C)c1C(=O)N(C)CCCOc1ccc(Cl)cc1 was tested, and the “% Inhibition” value was -1% and the Z score was 0.25. With CCc1cnc(NCc2c(C)nn(CC)c2C)nc1 the “% Inhibition” value was -8% and the Z score was 0.8. For O=C(c1cccnc1)N1C[C@H]2CC[C@@H](C1)N(CCOc1ccc(F)cc1)C2, the “% Inhibition” value was -6% and the Z score was 1.26. For O=C(CN1CCC(c2ccnn2CCO)CC1)N(Cc1ccccc1)C1CC1, the “% Inhibition” value was 36% and the Z score was -4.64. With Cc1ccc(-c2ccc(S(=O)(=O)N3CCCCCC3)cc2)cc1 the “% Inhibition” value was 1% and the Z score was -0.16. In the case of COc1ccccc1/C=C/CN1CCC[C@H](CNC(=O)c2cccnc2)C1, the “% Inhibition” value is reported as -12% and the Z score is reported as 1.11. COCCCN1C(=O)C[C@](CC(=O)N2CCN(c3ccc(F)cc3)CC2)(c2ccccc2OC)C1=O was tested, and the “% Inhibition” value was -5% and the Z score was 0.73. For CCOc1ccc(NC(=O)N2CC(=O)N(CC(=O)N3CCCCCC3)c3ccccc32)cc1, the “% Inhibition” value was -2% and the Z score was 0.26. In the case of CC1CCCCCN1C(=O)C1C2CCCCC21 (stereo unspecified), the “% Inhibition” value is reported as -6% and the Z score is reported as 0.89. In the case of O=C(NCc1cccnc1)c1nc(-c2nc(C3CC3)no2)cs1, the “% Inhibition” value is reported as 6% and the Z score is reported as -0.85. For Cc1ccc(C(=O)N2[C@H](C(=O)NCc3ccco3)COC23CCN(C(=O)c2ccccc2Cl)CC3)cc1, the “% Inhibition” value was -12% and the Z score was 1.52. With COCCCCN1CCN(c2nnc(C(C)C)s2)CC1 the “% Inhibition” value was -5% and the Z score was 0.87. In the case of Cc1nn(CCCNC(=O)CCn2nc(C(F)(F)F)c(Cl)c2C)cc1Br, the “% Inhibition” value is reported as 19% and the Z score is reported as -2.32. For CC(C)c1nnsc1CN1C[C@H](C2CC2)[C@@H](N)C1, the “% Inhibition” value was -14% and the Z score was 1.23. For CC(C)c1ccccc1OCCNC(=O)NCc1nccs1, the “% Inhibition” value was -2% and the Z score was 0.21. For COC(=O)C(N[C@@H](C)C(N)=O)c1cccc(Cl)c1Cl (stereo partly specified), the “% Inhibition” value was -3% and the Z score was 0.51. For COCCCN(C(=O)c1ccc(-c2cccc(Cl)c2)nc1N1C[C@@H](C)O[C@@H](C)C1)C1CCN(C)CC1, the “% Inhibition” value was -8% and the Z score was 1.16. CC[C@H]1CC[C@H](C(=O)NC[C@](C)(O)C(=O)OC)CC1 was tested, and the “% Inhibition” value was -5% and the Z score was 0.83. In the case of Cc1ccc(=O)n(CC(=O)N(Cc2ccccn2)Cc2ccc(Br)cc2F)n1, the “% Inhibition” value is reported as 1% and the Z score is reported as -0.21. CC[C@@](C)(CNC(=O)Cc1sc(C)nc1-c1ccc(C)cc1)N1CCOCC1 was tested, and the “% Inhibition” value was 17% and the Z score was -2.29. With Cc1cccc(-c2ccc(C(=O)NCc3ccnc(C)n3)c(=O)[nH]2)c1 the “% Inhibition” value was -9% and the Z score was 1.38. For CCN1CCN(C2(C(=O)N(C)C(C3CC3)C3CC3)Cc3ccccc3C2)CC1, the “% Inhibition” value was -11% and the Z score was 1.48. For N#CCCN(CC(F)(F)F)C(=O)c1ccc2c(c1)N=S=N2, the “% Inhibition” value was 9% and the Z score was -1.17. In the case of COc1ccc(CC(=O)N2CCC(OC)(c3nccn3C)CC2)cc1, the “% Inhibition” value is reported as -1% and the Z score is reported as 0.14. With COc1cccc(CNCCCn2ccnc2)c1OCc1ccc(F)cc1 the “% Inhibition” value was 36% and the Z score was -5.22. With COc1ccc(S(=O)(=O)NC2CCN(C)CC2)cc1C(=O)N1CCCCC1 the “% Inhibition” value was -11% and the Z score was 1.84. With Cn1cc(Cl)c([C@@H]2CCCCCN2C(=O)c2ccccc2F)n1 the “% Inhibition” value was 4% and the Z score was -0.36. For Cc1nc2ccccc2c(N2CCC(n3cncn3)CC2)c1C, the “% Inhibition” value was -21% and the Z score was 3.93. With COc1ccc(-n2nc3nc(NCCN4CCCCC4)nc(-c4cccc(Cl)c4)c3c2N)cc1 the “% Inhibition” value was -10% and the Z score was 1.41. In the case of Cc1oc2ncn(C)c(=O)c2c1C(=O)N1CCC(Cc2ccccc2)CC1, the “% Inhibition” value is reported as 1% and the Z score is reported as -0.14. With CCNC(=O)c1ccc(N2CCN(c3ccc(OC)cn3)CC2)nn1 the “% Inhibition” value was 9% and the Z score was -1.05. CCCc1cc(C(=O)Nc2c(C)n(C)n(-c3ccccc3)c2=O)no1 was tested, and the “% Inhibition” value was 5% and the Z score was -0.77. For Cc1cc2c(c(-c3ccc(-c4ccon4)s3)c1)O[C@@H](CN)C2, the “% Inhibition” value was -25% and the Z score was 2.69. O=S1(=O)CCN(CCc2c(F)ccc(F)c2F)CC1 was tested, and the “% Inhibition” value was -1% and the Z score was 0.12. COc1ccc(C(=O)NCCc2nc3ccccc3c(=O)[nH]2)cc1OC was tested, and the “% Inhibition” value was 1% and the Z score was -0.11. In the case of CC(C)=CCN(CCC#N)Cc1ccccn1, the “% Inhibition” value is reported as 0% and the Z score is reported as 0.06. For Cc1cnn(CCNC(=O)Cc2csc(-c3ncccn3)n2)c1, the “% Inhibition” value was 1% and the Z score was -0.21. With Fc1ccc(CN2CC[C@H](n3cc(COCc4ccccc4)nn3)C2)c(F)c1 the “% Inhibition” value was -6% and the Z score was 0.87. With CCCO/C(=N/C(=O)c1ccc2c(c1)OCO2)NCC(C)C the “% Inhibition” value was 3% and the Z score was -0.44. In the case of CCN=C(NCCc1cnn(C)c1C)NCc1cccnc1N(C)C, the “% Inhibition” value is reported as -6% and the Z score is reported as 0.83. In the case of Cn1nccc1-c1cc(F)cc2cccnc12, the “% Inhibition” value is reported as -1% and the Z score is reported as 0.21. In the case of C[C@@H](c1ccccn1)N(C)S(=O)(=O)c1cccc2nsnc12, the “% Inhibition” value is reported as -14% and the Z score is reported as 1.91. In the case of CC(=O)N(Cc1ccc(F)cc1)C(C)(C)C, the “% Inhibition” value is reported as -6% and the Z score is reported as 0.8. With O=C1NCCc2ccc(cc2)OCCCn2cc(nn2)CC12CCN(Cc1cnc(N3CCCC3)s1)CC2 the “% Inhibition” value was -7% and the Z score was 0.95. Cc1cc(F)ccc1[C@H]1C(=O)NCCN1Cc1csc(C(C)(C)C)n1 was tested, and the “% Inhibition” value was -8% and the Z score was 1.3.
